Experimental data as given in PubChem BioAssay AID903 (National Center for Advancing Translational Sciences (NCATS), 2007).
Hit rate of the full screen: of about 55,000 compounds, about 340 (0.62%) were called active. The inconclusive results got no clear call from the source; some entries with a clear call stand among them for comparison. Calls come from the whole dose curve; as a rule, active = well fitted cell-killing curve with a large enough effect; inconclusive = small, poorly fitted or top-dose-only effect; inactive = no such curve, though single readings can be large or run the other way. A potency beside an inconclusive call is a rough fit, not a confirmed value.

test: qHTS Screen for Compounds that Selectively Target Cancer Cells with p53 Mutations: Cytotoxicity of p53 Null Cells at the Permissive Temperature; conditions: H1299-neo p53 null cells, ATP luminescence, 24 h, 32C; series mostly up to 46.1 µM; note: nearly all actives have a fitted effect of over 55% in size
In short: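 We seeded p53-null H1299-neo cells, incubated them overnight at 37C, and added compounds across a range up to 46 uM. After 24 hours at 32C, ATP reagent was applied for 20 min at room temperature and luminescence recorded.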
Potency is the fitted concentration of half-maximal effect; tags give direction and shape of the fitted curve.

SMILES	Potency
CC(C)c1ccc(NC(=O)C2CCN(S(=O)(=O)c3cccc4nonc34)CC2)cc1	inactive
CCCC(=O)N1CCN(c2nc3ccc(F)cc3s2)CC1	inconclusive: 10 µM [cytotoxic, partial curve]
CCCn1c(/C=C/c2ccccc2)nc2ccccc21	active: 15.8 µM
CCC(C)NS(=O)(=O)c1ccc(N2CCCCS2(=O)=O)cc1 (stereo not drawn)	inconclusive: 3.55 µM [cytotoxic, single point]
CCN(CC)c1nc(-c2ccc(C(C)(C)C)cc2)nc2ccccc12	inconclusive: 20 µM [cytotoxic, partial curve]
CC1CCN(S(=O)(=O)c2ccc3c(c2)N(CC(=O)NCc2ccccc2)C(=O)CO3)CC1	inconclusive: 10 µM [cytotoxic, single point]
Cc1ccccc1CNC(=O)c1ccc(NC(=O)c2nsc3ccccc23)cc1	inconclusive: 12.6 µM [cytotoxic, single point]
CCN(c1ncnc2c1cnn2-c1ccc(C)cc1)C1CCCCC1	inconclusive: 25.1 µM [cytotoxic, single point]
CCC1CN(C(=O)N2CCC(C(=O)N3CCN(c4cccc(C)c4C)CC3)CC2)c2ccccc2O1 (stereo not drawn)	inactive
O=C(Cn1ncc2ccsc2c1=O)N1CCN(c2ccc(Cl)cc2)CC1	inconclusive: 6.31 µM [cytotoxic, single point]
Cc1ccc(NC(=O)N2CCc3ccccc32)cc1	active: 5.62 µM
CN1CCN(C2=Cc3ccccc3Sc3cc(F)c(Cl)cc32)CC1	inconclusive: 25.1 µM [cytotoxic, single point]
COc1ccc(C(=O)Oc2c(Sc3ccccc3)c(C)nn2-c2ccccc2)c(OC)c1	inconclusive: 31.6 µM [cytotoxic, single point]
COc1ccc2oc(=Nc3ccccc3)c(-c3nc4ccccc4[nH]3)cc2c1	active: 11.2 µM
CCCCN1C(=O)C(O)(CC(=O)c2ccc(CC)cc2)c2cc(Br)ccc21 (stereo not drawn)	inactive
Cc1ccccc1CCNC(=O)c1cc2ccccn2n1	inconclusive: 15.8 µM [cytotoxic, partial curve]
O=C(Nc1ccc(CN2CCOCC2)cc1)c1ccccc1F	inconclusive: 11.2 µM [cytotoxic, single point]
COc1ccc(-c2cc(C(F)(F)F)nc(S(C)(=O)=O)n2)cc1	inconclusive: 22.4 µM [cytotoxic, single point]
CCOc1ccccc1NC(=O)CSc1nnc2[nH]c(=O)cc(-c3ccccc3)n12	inconclusive: 12.6 µM [cytotoxic, partial curve]
O=C1N(Cc2ccccc2)c2ccc(Cl)cc2C1(O)c1c[nH]c2ccccc12 (stereo not drawn)	inconclusive: 31.6 µM [cytotoxic, single point]
CCCCC(=O)Oc1ccc2oc(-c3ccc(OC)cc3)cc(=O)c2c1	inconclusive: 12.6 µM [cytotoxic, partial curve]
Cn1nnc2c(N3CCN(c4ccccc4)CC3)ncnc21	inactive
COC(=O)c1ccccc1NC(=O)c1ccc2c(=O)n3c(nc2c1)CCCCC3	inconclusive: 12.6 µM [cytotoxic, single point]

SMILES	Potency
O=C(CN1C=NS(=O)(=O)c2ccc(C(F)(F)F)cc21)Nc1cccc(C(F)(F)F)c1	inactive
Cc1cccc(Cn2nnc(C(=O)Nc3cc(C)ccc3C)c2N)c1	inactive
CCOc1ccc(-n2c(SCC(=O)Nc3ccc4c(c3)OCCO4)nc3c([nH]c4ccccc43)c2=O)cc1	inconclusive: 3.16 µM [cytotoxic, single point]
CCN(CCCNC(=O)c1cc2cc3ccc(OC)cc3nc2s1)c1cccc(C)c1	inconclusive: 15.8 µM [cytotoxic, single point]
Cc1ccc(NS(=O)(=O)c2ccc3[nH]c4c(c3c2)CCCCCC4)cc1	inactive
CC(=O)c1ccc(NC(=O)c2ccc(-c3ccc(Cl)cc3)o2)cc1	inconclusive: 15.8 µM [cytotoxic, single point]
COc1ccc(NC(=O)Cn2c(SCc3ccc(F)cc3)nc3cccnc32)cc1OC	inconclusive: 22.4 µM [cytotoxic, partial curve]
CCCCN(CC)CCCNC(=O)Cn1ncc2c3ccccc3n(C)c2c1=O	inconclusive: 20 µM [cytotoxic, single point]
COc1cc(/C=C/c2nc(C#N)c(N3CCCCCC3)o2)cc(OC)c1OC	inactive
COCCn1c(SCC(=O)Nc2ccc(C)cc2)nc2c(oc3ccccc32)c1=O	inconclusive: 5.62 µM [cytotoxic, partial curve, poor fit]
CCCCS(=O)(=O)c1oc(-c2cccs2)nc1S(=O)(=O)c1ccccc1	inconclusive: 31.6 µM [cytotoxic, single point]
COc1cccc(C(=O)Nc2ccc3nc(SCC(=O)N4CCOCC4)sc3c2)c1	inconclusive: 15.8 µM [cytotoxic, partial curve]
CCCOc1ccc(C(=O)Nc2ccc3oc(-c4ccc(N(C)C)cc4)nc3c2)cc1	inactive
COc1ccc(NC(=O)c2csnn2)cc1	inconclusive: 12.6 µM [cytotoxic, partial curve]
Cc1ccc2nc(-c3cccc(N)c3)[nH]c2c1	active: 12.6 µM
COc1cccc(CNC(=O)C2CCN(C(=O)c3cnn(-c4ccccc4)c3-n3cccc3)CC2)c1	inactive
COc1ccc(CNc2nc3c(-c4cccc(F)c4)nnn3c3ccccc23)cc1	inconclusive: 31.6 µM [cytotoxic, single point]
Cn1nc(-c2ccccc2F)c2cc(C(=O)Nc3cc(F)ccc3F)sc21	inconclusive: 5.62 µM [cytotoxic, single point]
Cc1cccc(C(=O)Nc2ccc(C(=O)OCc3cc(=O)n4c(C)csc4n3)cc2)c1	inconclusive: 20 µM [cytotoxic, single point]
Cc1ccc(CNC(=O)C(=O)NCC(c2ccco2)S(=O)(=O)c2ccc(C)cc2)cc1 (stereo not drawn)	inconclusive: 3.55 µM [cytotoxic, single point]
CCN1CCN(c2cc(C)c3cc(NC(=O)/C=C/c4ccc(C)cc4)ccc3n2)CC1	inconclusive: 31.6 µM [cytotoxic, single point]
CCOC(=O)c1c(C)oc2c(Cl)cc(NS(=O)(=O)c3ccc(Cl)c(C)c3)cc12	inactive
Cc1cc(C(=O)Nc2ccccn2)cs1	inconclusive: 17.8 µM [cytotoxic, partial curve]

SMILES	Potency
COc1ccc(CCNc2oc(COc3ccc(Cl)cc3)nc2C#N)cc1OC	inconclusive: 15.8 µM [cytotoxic, single point]
Cc1cc(NC(=O)C2CCCN(S(=O)(=O)c3cccc4nonc34)C2)ccc1Br (stereo not drawn)	inactive
CC(C)OCCCN1C(=O)c2[nH]nc(-c3ccccc3O)c2C1c1ccc(OCc2ccccc2)cc1 (stereo not drawn)	inactive
O=c1[nH]c(N/N=C/c2ccc(O)cc2)nc2ccccc12	inconclusive: 11.2 µM [cytotoxic, single point]
COc1ccc(NC(=O)CN(C)S(=O)(=O)c2ccc3[nH]c4c(c3c2)CCCC4)cc1Cl	inactive
COc1ccc(Cn2c(SCc3ccc(C(=O)NCc4ccccc4F)cc3)nc3cccnc32)cc1	inconclusive: 11.2 µM [cytotoxic, partial curve, poor fit]
CC(=O)c1cccc(NC(=O)CCc2nc3cccnc3n2Cc2cccs2)c1	inconclusive: 35.5 µM [cytotoxic, single point]
CCC(C)NC(=O)c1ccc2c(c1)nc1n2CCCCC1 (stereo not drawn)	inconclusive: 10 µM [cytotoxic, partial curve]
Clc1ccc(-c2cn3cc(Cc4ccccc4)sc3n2)cc1	inconclusive: 7.94 µM [cytotoxic, partial curve]
CCCC1=Nc2cc(C(=O)NC3CCCCC3)ccc2Sc2ccc(C)cc21	inactive
O=C(Cc1ccc(Cl)cc1)Nc1ccc2oc(-c3ccc(F)cc3)nc2c1	inactive
CCN(c1ccccc1)S(=O)(=O)c1ccc(NC(=O)c2nc(S(C)(=O)=O)ncc2Cl)cc1	inconclusive: 25.1 µM [cytotoxic, single point]
Cc1ccccc1OCC(=O)Nc1ccc2nc(SCC(=O)N3CCCC3)sc2c1	inconclusive: 20 µM [cytotoxic, partial curve]
CCC1(C)CC(=O)c2c(ccc3oc(C(=O)Nc4ccc(C(C)=O)cc4)c(C)c23)O1 (stereo not drawn)	inactive
COc1ccc(NC(=O)Cn2c(=O)n(Cc3ccccc3)c(=O)c3sc4ccccc4c32)cc1	inconclusive: 35.5 µM [cytotoxic, single point]
CC(C)(C)C(=O)Nc1nc(-c2ccccc2)ns1	inconclusive: 12.6 µM [cytotoxic, single point]
CCC(=O)C1=C(c2ccc(C)cc2)N(C(=O)CC)n2c(nnc2C2CCCCC2)S1	inactive
COc1cccc(Cn2c(CNS(=O)(=O)c3ccc(Cl)s3)nc3cccnc32)c1	inconclusive: 5.62 µM [cytotoxic, single point]
COc1ccccc1CNC(=O)CSc1nnc(C)c2c(C)n(-c3ccccc3)nc12	inactive
O=c1c2sc3ccccc3c2n(Cc2ccccc2)c(=O)n1CCc1ccccc1	inconclusive: 17.8 µM [cytotoxic, single point]
CCC(C)NC(=O)Cn1c(=O)n(Cc2ccc(C(=O)NCc3ccc(C)cc3)cc2)c(=O)c2ccccc21 (stereo not drawn)	inconclusive: 15.8 µM [cytotoxic, partial curve]
COc1ccc(C(=O)NCc2ccc3c(c2)CCN3C(=O)c2ccc(F)cc2)cc1	inactive
